# B1: 1H3-hIgG1-L6-hCD25(1-164)-L20-hIL-2 (E95K) (other)
# heavy: EVQLVESGGGLVQPGRSLKLSCAVSGFTFSDYAMAWVRQAPKKGLEWVATISYDGSRTYYRDSVKGRFTISRDNAKITLYLQMDSLRSEDTATYYCARHGSGYFDYWGQGVMVTVSS[not shown - human IgG1 constant region]SGGGGSELCDDDPPEIPHATFKAMAYKEGTMLNCECKRGFRRIKSGSLYMLCTGNSSHSSWDNQCQCTSSATRNTTKQVTPQPEEQKERKTTEMQSPMQPVDQASLPGHCREPPPWENEATERIYHFVVGQMVYYQCVQGYRALHRGPAESVCKMTHGKTRWTQPQLICTSGGGGSGGGGSGGGGSGGGS[not shown - about 150 residues]
# light: DTVLTQSPALAVSPGERVTISCRASESVRTGVHWYQQKPGQQPKLLIYGASNLESGVPARFSGSGSGTDFTLTIDPVEADDTATYFCQQSWNDPFTFGSGTKLEIKRTVAAPSVFIFPPSDEQLKSGTASVVCLLNNFYPREAKVQWKVDNALQSGNSQESVTEQDSKDSTYSLSSTLTLSKADYEKHKVYACEVTHQGLSSPVTKSFNRGEC
# B2: 1H3-hIgG1-L6-hCD25(1-164)-L20-hIL-2 (N88R) (other)
# heavy: EVQLVESGGGLVQPGRSLKLSCAVSGFTFSDYAMAWVRQAPKKGLEWVATISYDGSRTYYRDSVKGRFTISRDNAKITLYLQMDSLRSEDTATYYCARHGSGYFDYWGQGVMVTVSS[not shown - human IgG1 constant region]SGGGGSELCDDDPPEIPHATFKAMAYKEGTMLNCECKRGFRRIKSGSLYMLCTGNSSHSSWDNQCQCTSSATRNTTKQVTPQPEEQKERKTTEMQSPMQPVDQASLPGHCREPPPWENEATERIYHFVVGQMVYYQCVQGYRALHRGPAESVCKMTHGKTRWTQPQLICTSGGGGSGGGGSGGGGSGGGS[not shown - about 150 residues]
# light: B1 light
# B3: 1H3-hIgG1-L6-hCD25(1-164)-L20-hIL-2 (N88D) (other)
# heavy: EVQLVESGGGLVQPGRSLKLSCAVSGFTFSDYAMAWVRQAPKKGLEWVATISYDGSRTYYRDSVKGRFTISRDNAKITLYLQMDSLRSEDTATYYCARHGSGYFDYWGQGVMVTVSS[not shown - human IgG1 constant region]SGGGGSELCDDDPPEIPHATFKAMAYKEGTMLNCECKRGFRRIKSGSLYMLCTGNSSHSSWDNQCQCTSSATRNTTKQVTPQPEEQKERKTTEMQSPMQPVDQASLPGHCREPPPWENEATERIYHFVVGQMVYYQCVQGYRALHRGPAESVCKMTHGKTRWTQPQLICTSGGGGSGGGGSGGGGSGGGS[not shown - about 150 residues]
# light: B1 light
# B4: 1H3-hIgG1-L6-hCD25(1-164)-L20-hIL-2 (S87A) (other)
# heavy: EVQLVESGGGLVQPGRSLKLSCAVSGFTFSDYAMAWVRQAPKKGLEWVATISYDGSRTYYRDSVKGRFTISRDNAKITLYLQMDSLRSEDTATYYCARHGSGYFDYWGQGVMVTVSS[not shown - human IgG1 constant region]SGGGGSELCDDDPPEIPHATFKAMAYKEGTMLNCECKRGFRRIKSGSLYMLCTGNSSHSSWDNQCQCTSSATRNTTKQVTPQPEEQKERKTTEMQSPMQPVDQASLPGHCREPPPWENEATERIYHFVVGQMVYYQCVQGYRALHRGPAESVCKMTHGKTRWTQPQLICTSGGGGSGGGGSGGGGSGGGS[not shown - about 150 residues]
# light: B1 light
# B5: 1H3-hIgG1-L6-hCD25(1-164)-L20-hIL-2 (D20W) (other)
# heavy: EVQLVESGGGLVQPGRSLKLSCAVSGFTFSDYAMAWVRQAPKKGLEWVATISYDGSRTYYRDSVKGRFTISRDNAKITLYLQMDSLRSEDTATYYCARHGSGYFDYWGQGVMVTVSS[not shown - human IgG1 constant region]SGGGGSELCDDDPPEIPHATFKAMAYKEGTMLNCECKRGFRRIKSGSLYMLCTGNSSHSSWDNQCQCTSSATRNTTKQVTPQPEEQKERKTTEMQSPMQPVDQASLPGHCREPPPWENEATERIYHFVVGQMVYYQCVQGYRALHRGPAESVCKMTHGKTRWTQPQLICTSGGGGSGGGGSGGGGSGGGS[not shown - about 150 residues]
# light: B1 light
# B6: 1H3-hIgG1-L6-hCD25(1-164)-L20-hIL-2 (D20S) (other)
# heavy: EVQLVESGGGLVQPGRSLKLSCAVSGFTFSDYAMAWVRQAPKKGLEWVATISYDGSRTYYRDSVKGRFTISRDNAKITLYLQMDSLRSEDTATYYCARHGSGYFDYWGQGVMVTVSS[not shown - human IgG1 constant region]SGGGGSELCDDDPPEIPHATFKAMAYKEGTMLNCECKRGFRRIKSGSLYMLCTGNSSHSSWDNQCQCTSSATRNTTKQVTPQPEEQKERKTTEMQSPMQPVDQASLPGHCREPPPWENEATERIYHFVVGQMVYYQCVQGYRALHRGPAESVCKMTHGKTRWTQPQLICTSGGGGSGGGGSGGGGSGGGS[not shown - about 150 residues]
# light: B1 light
# B7: 1H3-hIgG1-L6-hCD25(1-164)-L20-hIL-2 (D84K) (other)
# heavy: EVQLVESGGGLVQPGRSLKLSCAVSGFTFSDYAMAWVRQAPKKGLEWVATISYDGSRTYYRDSVKGRFTISRDNAKITLYLQMDSLRSEDTATYYCARHGSGYFDYWGQGVMVTVSS[not shown - human IgG1 constant region]SGGGGSELCDDDPPEIPHATFKAMAYKEGTMLNCECKRGFRRIKSGSLYMLCTGNSSHSSWDNQCQCTSSATRNTTKQVTPQPEEQKERKTTEMQSPMQPVDQASLPGHCREPPPWENEATERIYHFVVGQMVYYQCVQGYRALHRGPAESVCKMTHGKTRWTQPQLICTSGGGGSGGGGSGGGGSGGGS[not shown - about 150 residues]
# light: B1 light
# B8: 1H3-hIgG1-L6-hIL-2 (D20R/R38E) (other)
# heavy: EVQLVESGGGLVQPGRSLKLSCAVSGFTFSDYAMAWVRQAPKKGLEWVATISYDGSRTYYRDSVKGRFTISRDNAKITLYLQMDSLRSEDTATYYCARHGSGYFDYWGQGVMVTVSS[not shown - about 450 residues with a human IgG1 Fc and changes]
# light: B1 light
# Legend:
# Experiment in all cases: cell-based or functional assay
# [1] = molecular target: T1, high affinity hIL-2 receptor (hIL-2Rαβγ) on NK-92 cells (human, UniProt P01589 22-272; P14784 27-551; P31785 23-369)
# T1 sequence 1: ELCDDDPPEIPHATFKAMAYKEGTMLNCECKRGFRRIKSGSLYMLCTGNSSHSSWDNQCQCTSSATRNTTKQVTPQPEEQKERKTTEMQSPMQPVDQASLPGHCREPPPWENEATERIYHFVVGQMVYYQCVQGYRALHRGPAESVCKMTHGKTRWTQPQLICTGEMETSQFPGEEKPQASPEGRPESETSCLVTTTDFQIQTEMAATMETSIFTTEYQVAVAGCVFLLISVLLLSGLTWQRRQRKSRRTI
# T1 sequence 2: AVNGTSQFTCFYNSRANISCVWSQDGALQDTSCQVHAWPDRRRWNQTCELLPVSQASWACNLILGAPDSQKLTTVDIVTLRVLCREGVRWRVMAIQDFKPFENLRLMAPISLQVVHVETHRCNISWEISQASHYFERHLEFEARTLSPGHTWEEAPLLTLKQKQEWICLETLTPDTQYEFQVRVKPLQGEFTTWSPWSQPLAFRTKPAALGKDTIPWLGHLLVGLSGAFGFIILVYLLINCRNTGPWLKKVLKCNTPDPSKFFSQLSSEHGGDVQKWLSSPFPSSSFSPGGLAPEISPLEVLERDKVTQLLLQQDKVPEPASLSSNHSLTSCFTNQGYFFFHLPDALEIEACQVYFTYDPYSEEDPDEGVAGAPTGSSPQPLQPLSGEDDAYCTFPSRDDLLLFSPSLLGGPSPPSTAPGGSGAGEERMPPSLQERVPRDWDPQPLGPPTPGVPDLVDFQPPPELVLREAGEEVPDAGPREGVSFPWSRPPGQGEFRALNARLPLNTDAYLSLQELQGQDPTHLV
# T1 sequence 3: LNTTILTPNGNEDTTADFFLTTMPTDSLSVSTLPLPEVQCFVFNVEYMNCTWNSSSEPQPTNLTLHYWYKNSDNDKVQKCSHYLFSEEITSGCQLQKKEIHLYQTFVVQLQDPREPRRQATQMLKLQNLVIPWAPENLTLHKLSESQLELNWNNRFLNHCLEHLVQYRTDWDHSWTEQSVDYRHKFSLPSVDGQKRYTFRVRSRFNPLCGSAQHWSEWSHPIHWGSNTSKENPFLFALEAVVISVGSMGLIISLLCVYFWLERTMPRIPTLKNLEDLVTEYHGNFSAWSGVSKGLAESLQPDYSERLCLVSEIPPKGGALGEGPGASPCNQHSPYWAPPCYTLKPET
# [2] = molecular target: T2, intermediate affinity hIL-2 receptor (hIL-2Rβγ) on TF1+IL-2Rβ cells (human, UniProt P14784 27-551; P31785 23-369)
# T2 sequence 1: T1 sequence 2
# T2 sequence 2: T1 sequence 3
# [3] = molecular target: T3, intermediate-affinity hIL-2 receptor (IL-2Rβγ) on TF1+IL-2Rβ cells (human, UniProt P14784 27-551; P31785 23-369)
# T3 sequence 1: T1 sequence 2
# T3 sequence 2: T1 sequence 3
# [4] = molecular target: T4, high-affinity hIL-2 receptor (IL-2Rαβγ) on NK-92 cells (human, UniProt P01589 22-272; P14784 27-551; P31785 23-369)
# T4 sequence 1: T1 sequence 1
# T4 sequence 2: T1 sequence 2
# T4 sequence 3: T1 sequence 3
Binder,Fold change from rhIL-2 (NK-92) [1] [fold],Agonistic Activity (TF1 + IL-2Rβ) [2] [%],Fold change from rhIL-2 (TF1 + IL-2Rβ) [2] [fold],Agonistic Activity (NK-92) [1] [%],Fold change from rhIL-2 (TF1 + IL-2Rβ) [3] [fold],Fold change from rhIL-2 (NK-92) [4] [fold]
B1,51,80,164,–,–,–
B2,42,50,~6860,–,–,–
B3,50,90,~3280,–,–,–
B4,19,90,20,90,–,–
B5,> 10000,–,> 10000,–,–,–
B6,127,50,~8710,–,–,–
B7,783,30,~2050,90,–,–
B8,–,–,–,–,> 10000,> 10000

# Source: patent US20240076343A1 (CEPHALON, published 2024)
